Test results: the RNAGym collection of RNA variant scans (doi:10.7554/elife.90254)
The source gives no read counts; variants with many changes may rest on few reads.

B1: LINE1-mini (parent)
chain: GGCAGAGCUCAACACAGCGUGGCAAAGUGGCUGUGGCUAGACUGCC

Variants of: B1
Assay: self-cleavage, relative activity (ratio to wild type); higher = more cleavage; in vitro, sequencing; the parent is a self-cleaving ribozyme

Variant | self-cleavage
G7C U9A A12C C18A C42G G44A | 0.01
G7U C13U A16C U38A | 0.19
G7U A26G G33U | 0.01
G7U C13U C15G G21U C42G G44C | 0.08
G7C U9A A39G | 0
G7U A11G G17U G29U G35U A41U C46A | 0.01
G7U C10A A11C A39U | 0.02
G7C U9G C23A G30C C31U C45A | 0.02
G7U C8A A11C G17A | 0.02
G7U A14C G30A U38C | 0.09
G7C G22U U43C C46G | 0.43
G7U A14U U20C U32G | 0.11
G7U A12U G19U C23U A24C A39G | 0.01
G7C G27U G33U | 0.11
G7U A16U A24C | 0.08
G7U A26C U38G | 0.02
G7U C8A U43C | 0.39
G7U A14C G21U | 0.06
G7C U9C A16G C18U U43A | 0.01
G7U C15U G44U | 0.1
G7U A12G A14U C31U | 0.02
G7U C10A A11U G22A A25G G33C | 0.01
G7U C13G G35A C37A | 0.1
G7U A14U U32A | 0.11

Variant | self-cleavage
G7U C8U A11G A14G | 0.02
G7C G40C C46U | 0.06
G7U A16U G27U | 0.19
G7U A11G G17U C18G C23A | 0.01
G7C U32C C37U | 0.02
G7U A12C G19A | 0.01
G7U C15G U28C C45U | 0.01
G7U C10G U34C | 0.05
G7C U34C G36U | 0.14
G7U C15U U20A C23U G36C C37U C46A | 0.02
G7U A11U A16C | 0.02
G7U C15U G21A U38A C46U | 0.03
G7U A14C A41G | 0.08
G7C G19C U20A C23U | 0.03
G7C U9C A25G C42A | 0.01
G7U C10G A12G C15G | 0
G7U C8U U9A C13A | 0.88
G7U C15A U20G G21C C45A | 0.02
G7C G21U C42U C46A | 0.11
G7C U9A C13A A25C | 0.07
G7U A14G C23U G29C G35U C37U | 0
G7U C10A C45U | 0.01
G7U C10A C45G | 0.02
G7C U9C A16C U20G | 0.01

Variant | self-cleavage
G7U C8U A11C G27A U28C G29U C37A C42U C45A | 0
G7U C13A C18G | 0.07
G7U C8G A14C G35U A41G | 0.09
G7U C15G C18A G33C C42U | 0.01
G7U C8A G19C G36U U38G | 0.02
G7U C10A C18G | 0.05
G7C G33U C37A U43C | 0.15
G7U C10G G17U U20G | 0.03
G7C G27C U34C | 0.3
G7U C10U A12C C13A A41G | 0
G7U C10A A16C C46A | 0.01
G7C G19A G27C | 0.11
G7U A16G G22A A26G C31G | 0.04
G7U C15U U20G A26C U32A C37U C42G | 0.05
G7U C8G C15U U38A | 0.11
G7U C8G U9G C13A A16U G27U | 0.02
G7U C10U U38A A41U | 0.01
G7U A24C U28C C31A G33C | 0.04
G7U A26U G29A | 0.04
G7U C15U G33A | 0.07
G7U A25G G36A U43G | 0.04
G7C G19U U20A G29U | 0.08
G7C G22A C23A A26G G27C | 0.31
G7U A11C U20C U28A G36A | 0.02

Variant | self-cleavage
G7C U34G A41G | 0.01
G7U A12C G36U | 0.04
G7U A11G A16C | 0.02
G7U C8A A14G | 0.1
G7U A26C G30C A39U C42G | 0
G7C U38A G40A G44A | 0.04
G7U A11U U38A | 0.02
G7U C8G U9A C18U G30A A39G | 0.01
G7U C10U G22A C23G U34A | 0.01
G7U C8G G19C A24U G33U | 0.04
G7U C8A G35C | 0.52
G7U C15G C18A | 0.03
G7U C8G G35U | 0.31
G7C U20A A41U C42U | 0.14
G7U C8G U20G C46A | 0.09
G7U A12G G19A C31A | 0.12
G7C G27U C42G | 0.07
G7U C15G G21C U34G U38G A41C | 0.02
G7U A11U C13U C18G G19A G40C C42U | 0.01
G7C G19C G33A G44U | 0.27
G7C U28A G30C C37G | 0.01
G7U A25U G35U | 0.16
G7U A11G G22C C23G G36A C46G | 0
G7C U9A C18U U38A A39G | 0.02

Variant | self-cleavage
G7U A25C C46G | 0.05
G7U A12U C15U G22C A24G U38G C42U | 0.02
G7U A11U U28C U38G G44A | 0
G7C G33A G35C U43A | 0.03
G7U C8A G29U | 0.19
G7U A12U C13A G19A | 0.12
G7C G22U C23A | 0.2
G7U C10U A11U U34A | 0.02
G7U C8G A16G A26U | 0.06
G7U A11C G17A G30C G40C | 0.01
G7U C13A G21U C37A C42U | 0.05
G7U A14U G27U G40A G44C | 0.23
G7C U9A U20A | 0.11
G7C G22A G29A U34G C37U | 0.01
G7C U28C G29U | 0.07
G7U A12U G40C | 0.14
G7C G22U A41U | 0.24
G7C U28A C37A C42U | 0.24
G7U C8A U9G A16G G29U C31G G33U G36A | 0.01
G7U C10A A11G G36C G40A | 0
G7U C15A U32C | 0.04
G7U A12U A16G A25G A26G | 0.09
G7U C8G A12G | 0.03
G7U A25U C37A | 0.11

Variant | self-cleavage
G7U C8A C13A | 0.23
G7U C15A A41G | 0.17
G7C U9C C10U G17A G27U G40U | 0.02
G7U A14G A26G G27C A41G | 0.06
G7C G27A U43A | 0.02
G7U C10A A12C A14C A16C G19A G35C | 0.01
G7U A16U A25U G44C C45U | 0.03
G7U A12G A26C A39C | 0.36
G7U A14C U20C A24C G27A | 0.04
G7U A16C C46A | 0.04
G7U C15A A25G | 0.08
G7C G29U C45A | 0.25
G7U C10U A16C C42A | 0.04
G7U C13G U28C G35C | 0.05
G7C U9G U28A G35C | 0.08
G7C U9A A16U | 0.03
G7U A25G G36C | 0.14
G7C G21U C23A G29A G30U U43C | 0.05
G7C U9G C10A U38A C42G | 0
G7U C13G C37U | 0.01
G7C U9C G30U U38A C45G | 0.02
G7U C10A C15G G33C | 0.01
G7U C8G C13U | 0.08
G7C U9C C10A A11C A12C C23U G27C U28C G33C | 0.01

Variant | self-cleavage
G7U C15U G17A A26G G27C | 0.06
G7U C10A G27C U38A G40U C46A | 0
G7C G27U A39U | 0.04
G7U C13U G21C | 0.05
G7C U9G C10U G22A U38C | 0.02
G7C U34G C45A | 0.08
G7C U9G C13G G29C G33A U34A | 0.06
G7C G22A C23A G29C C31A U32G G44A C45U | 0.01
G7U C8A G27C | 0.15
G7U A11G A25U | 0.02
G7C U9C U28C C46U | 0.11
G7U C10A U28C G33A G35C A39U | 0.02
G7C G27C G33A C42G | 0.07
G7U A11C G27A U43C | 0.03
G7U A11G G21C G30U G35U G40U C45A | 0
G7C G19A G35U | 0.07
G7C U20C A41C | 0.18
G7U C18A A26U U28G G36C C46A | 0
G7U A14G G27U G40A | 0.18
G7C U9A G27U U32G A41C | 0.01
G7C G36U C46A | 0.11
G7C G21A A26C G29C G40U G44U | 0.1
G7U C8U G19A A24C G36U | 0.12
